Out of some 52,000 compounds screened, about 4,300 (8.3%) were called active. Cut-off read from the data, not from the text of the source: active = survival mostly below about 52% (no sharp cut-off); inactive = mostly above about 56%. Some of the results follow.

For this test, the system named is DeltatarO mutant. Briefly: S. aureus survival, RN4220 and DeltatarO strains – OD600, teichoic acid synthesis inhibitors, primary screen (AID 463173). To be noted: S. aureus RN4220 wild type/DeltatarO growth, OD600, 18 h, hits give low values, screened at 18.75 µg/mL (by protocol).
As to `Fc1cccc(-c2nnn3c2nc(NC2CCCCC2)c2ccccc23)c1`, the survival was inactive: 59%.

Turning to `CC(C)C(c1nnnn1C1CCCC1)N(Cc1ccc(Cl)cc1)CC1CCCO1` (stereo not drawn), the survival is inactive: 92%. Take `COc1ccccc1CNC(=O)CN1C(=O)COc2ccc(S(=O)(=O)NC3CCCC3)cc21`: the survival is inactive: 95%. `O=C(C1CCN(S(=O)(=O)Cc2ccccc2)CC1)N1CCN(c2cccc(C(F)(F)F)c2)CC1`: the survival was inactive: 86%. In the case of `CC1CCN(CC2CCN(C(=O)Nc3ccc(Br)cc3F)CC2)CC1`, the survival is inactive: 67%. As for `Cc1cccc(-n2c(CNC(=O)c3cccc(F)c3)nnc2SCC(=O)Nc2ccccc2F)c1`, the figure is inactive: 68%; as for `COc1cc(S(=O)(=O)NCCc2c(C)[nH]c3ccccc23)c(C)cc1C`, inactive: 56%. In the case of `CCc1cccc(-n2c(=O)c3cccnc3n2CC(=O)Nc2c(C)cc(C)cc2C)c1`, the survival is inactive: 74%.

For `COc1ccc(N(Cc2cc3cccc(C)c3[nH]c2=O)C(=O)c2cccc(Cl)c2)cc1`, the survival is inactive: 67%.

In the case of `NCCCC(=O)OC1CCCCC1`, the survival was inactive: 100%. For `On1c2c(c3c4nonc4ccc31)CCCC2` the value was active: 0%; for `COc1ccc2nc(N(Cc3cccnc3)C(=O)Cc3ccccc3)sc2c1`, inactive: 99%. Consider `Nc1nc(-c2ccccc2)nn1C(=O)c1cccs1`, for which the survival is inactive: 77%. For `CN(C)S(=O)(=O)c1ccc(C(=O)NCCSc2c(-c3ccccc3)[nH]c3ccccc23)cc1` the value was inactive: 68%; for `CC(=O)N1CCc2cc(S(=O)(=O)C(C)CC(=O)Nc3ccc(Br)c(C)c3)ccc21` (stereo not drawn), active: -5%; for `COc1ccc(NC(=O)CSc2nc3c(oc4ccccc43)c(=O)n2Cc2ccco2)cc1Cl`, inactive: 101%.

In the case of `CC1CCN(S(=O)(=O)c2nnc(NC(=O)c3cccc(Cl)c3)s2)CC1`, the survival is active: 23%. For `COc1ccc(CNC(=O)CN2C(=O)CSc3ccc(S(=O)(=O)N4CCC(C)CC4)cc32)cc1`, the survival was inactive: 69%.

In the case of `COc1ccc(/C=C/C(=O)Nc2nc(-c3cccs3)ns2)cc1`, the survival was inactive: 51%. On to `COc1ccc(CNC(=O)C2CCC(CNS(=O)(=O)c3ccc4c(c3)CCCC(=O)N4)CC2)cc1` (stereo not drawn), for which the survival is inactive: 87%. On to `COc1cc(-c2nc(Cn3nnc(C(=O)Nc4cccc(Cl)c4)c3C)c(C)o2)cc(OC)c1OC`, for which the survival was inactive: 80%. As for `CCc1ccc(C(=O)NCC2(c3ccccc3)CCOCC2)o1`, the figure is inactive: 103%; as for `Cc1ccc(Cl)cc1-n1ncc2c(N3CCN(Cc4ccccc4)CC3)ncnc21`, inactive: 109%; as for `CCOC(=O)c1c(NC(=O)c2ccc(S(=O)(=O)N(C)C3CCCCC3)cc2)sc2c1CCN(C(C)C)C2`, inactive: 69%.

For `Cc1noc(C)c1S(=O)(=O)N(CC(=O)NCCc1ccccc1)c1ccc(C(C)C)cc1`, the survival was inactive: 110%. As for `CCOCCCN1C(=O)c2ccccc2CC1(C)C(=O)NC1CCCCC1` (stereo not drawn), the figure is inactive: 94%; as for `Cc1cc(C)c(NC(=O)C2CCN(c3nn4c(=O)cc(C)nc4s3)CC2)c(C)c1`, inactive: 103%. As for `COc1ccc(NCc2cccn2-c2nnc(N3CCCCC3)s2)cc1OC`, the survival is inactive: 73%.

In the case of `Cc1ccc2nc(COc3ccccc3NC(=O)c3ccc(F)cc3)cc(=O)n2c1`, the survival was active: 20%. `Cc1cc(C)cc(NC(=O)Cn2cc(C(=O)C3CCCCC3)c3ccccc32)c1`: the survival is inactive: 81%. `O=C(CSc1nc2c([nH]c3ccccc32)c(=O)n1-c1ccc(Cl)cc1)c1ccccc1`: the survival is inactive: 94%.

Regarding `Cc1[nH]n(-c2ccc(Cl)cc2)c(=O)c1C(=O)c1ccccc1`, the survival was active: 40%. Take `O=C(CSC1=Nc2ccccc2N=C(c2ccc(F)cc2)C1)Nc1ccccc1`: the survival is inactive: 85%. In the case of `CCOc1ccc(NS(=O)(=O)c2ccc3c(c2)CCCN3C(=O)C2CCC2)cc1`, the survival is inactive: 67%.

`COc1ccccc1CNC(=O)c1cn(C)c2ccc(S(=O)(=O)N(C)C3CCCCC3)cc2c1=O`: the survival was inactive: 60%. For `CCOC(=O)CSc1nc2c(sc3ccccc32)c(=O)n1CCO`, the survival was active: -5%.

For the compound `COc1ccc(OCC(O)Cn2c(NCCO)nc3c2c(=O)n(C)c(=O)n3C)cc1` (stereo not drawn), the survival was inactive: 76%.

With `Cc1nn(CC(=O)N2CCN(c3ccc(Cl)cc3)CC2)c(=O)c2cccn12`, the survival is inactive: 89%. As for `CCN(CC)CCCNc1ncnc2c1cnn2-c1ccc(C)c(C)c1`, the figure is inactive: 78%; as for `Cc1csc2nc(COc3cccc(NC(=O)c4ccccc4F)c3)cc(=O)n12`, inactive: 123%. As for `CC1CCCCN1C(=O)c1cc(-c2ccc(Br)cc2)on1` (stereo not drawn), the survival was inactive: 66%. As for `CCOC(=O)C1CCN(c2nc3c(S(=O)(=O)c4ccc(C)c(C)c4)nnn3c3ccc(Cl)cc23)CC1`, the figure is inactive: 78%.

Consider `CC1=C(C(=O)N2CCN(c3cccc(Cl)c3)CC2)C2(CCCCC2)OC1=O`, for which the survival was inactive: 69%. With `COc1ccc(Cn2c(SCC(=O)N(C)Cc3ccccc3)nc3ccccc32)cc1`, the survival is inactive: 88%. Turning to `CC(C)(C)C1CCc2oc3ccc(NS(=O)(=O)c4ccc(C(=O)O)cc4)cc3c2C1` (stereo not drawn), the survival was active: 16%. For `Cc1ccc(NC(=O)Cn2c(=O)nc(-c3ccccc3)c3ccccc32)cc1F`, the survival is inactive: 95%. As to `COc1ccc(CCNc2ncnc3c2cnn3-c2cc(Cl)ccc2C)cc1`, the survival is inactive: 134%.

`CC1CCN(S(=O)(=O)c2ccc3c(ccc(=O)n3CC(=O)Nc3cccc(F)c3)c2)CC1`: the survival was inactive: 117%. For `O=C(Nc1cnc(N2CCN(c3ccccc3)CC2)c(C(=O)O)c1)c1cccs1` the value was inactive: 99%; for `CN1CCc2c(sc3c2C(=O)NC(c2ccc(C(C)(C)C)cc2)N3)C1` (stereo not drawn), inactive: 48%.

As for `Cc1ccc(NC(=O)c2cc(S(=O)(=O)NCCc3ccc(Cl)cc3)ccc2F)cc1`, the survival was inactive: 80%.

As for `CCOc1ccc(NC(=O)Cn2c(=O)n(CCCCCC(=O)NCc3ccccc3)c(=O)c3sccc32)cc1`, the survival is inactive: 48%. Regarding `Cn1c(C(=O)Nc2ccccc2)cc2sccc21`, the survival is inactive: 63%. `CCc1ccc2occ(CC(=O)Nc3c(C(=O)c4ccc(C)cc4)oc4ccccc34)c2c1`: the survival is inactive: 78%.

In the case of `COc1ccc(S(=O)(=O)Nc2c(C)nc3nc[nH]n3c2=O)cc1`, the survival was inactive: 130%. Take `Cc1ccc2c(CNCc3ccc(C)o3)c(C(=O)O)n(Cc3ccccc3C)c2c1`: the survival is inactive: 81%. As for `Cc1ccc(C)c(N2CCN(S(=O)(=O)c3ccc4c(c3)C(C(C)C)C(=O)N4)CC2)c1` (stereo not drawn), the figure is inactive: 82%. Consider `CSc1ncc(C(=O)NCc2ccccc2F)c(-c2ccccc2)n1`, for which the survival was inactive: 112%. For `CCCc1ccc(OCC(=O)Nc2sc(C(=O)OCC)c(C)c2C(=O)OCC)cc1` the value was inactive: 82%. For `CCc1ccccc1NS(=O)(=O)c1ccc2[nH]cc(C(=O)N(CC)Cc3ccccc3)c(=O)c2c1`, the survival is inactive: 84%. Regarding `COc1ccc(C2NC(=O)N(C)C3=C2C(=O)N(c2ccc(C(=O)O)cc2)C3)cc1` (stereo not drawn), the survival is inactive: 72%.

On to `COc1ccc(OC)c(C2CC(=O)Nc3c2c(=O)[nH]c2ncnn32)c1` (stereo not drawn), for which the survival is inactive: 68%. As to `CCc1ccc(C2CC(=O)c3c([nH]c(C(=O)OC4CCCC4)c3C)C2)cc1` (stereo not drawn), the survival was inactive: 97%. Regarding `COc1cccc(-c2nc(CS(=O)(=O)CC(=O)N3CCN(c4cc(C)ccc4C)CC3)c(C)o2)c1`, the survival was inactive: 104%. Regarding `CC1CCN(CC(=O)Nc2ccc(S(=O)(=O)N3CCCCC3)cc2)CC1`, the survival is inactive: 100%. For the compound `CCOC(=O)c1ccc(CN(Cc2ccc(F)cc2)S(=O)(=O)c2ccc(F)c(C(=O)Nc3c(C)cccc3C)c2)cc1`, the survival was inactive: 93%. In the case of `COc1ccc2c(c1)cc1c(=O)n(CC(=O)NC(C)CCc3ccccc3)nc(C)n12` (stereo not drawn), the survival is inactive: 119%. For `O=S(=O)(NCCc1csc2nc(-c3ccccc3)nn12)c1cc(F)ccc1F`, the survival is inactive: 76%.

With `Cc1ccc(-n2ncc3c(Nc4cccc(C(=O)O)c4)ncnc32)cc1`, the survival was inactive: 81%.

As for `COC(=O)CSc1nc(C(C)(C)C)cc(C(F)(F)F)n1`, the survival was inactive: 99%. As for `CCCSCCCNC(=O)C1CCN(c2nc3ccccc3nc2C(F)(F)F)CC1`, the figure is active: 0%; as for `CCCCn1cnc2cc(NCc3ccccc3Cl)ccc21`, active: -16%; as for `COc1ccc(-c2[nH]c(-c3ccc(Cl)cc3)nc2SCC(=O)NCC2CCCO2)cc1` (stereo not drawn), inactive: 59%. As to `Cc1ccc(NC(=O)C(=O)NCC(c2cccnc2)N2CCN(Cc3ccccc3)CC2)cc1F` (stereo not drawn), the survival is inactive: 82%. Take `Cc1cc(C)nc(N(C#N)Cc2ccccc2)n1`: the survival was inactive: 100%. For `Cc1cc(S(=O)(=O)C(CNC(=O)c2ccc(F)c(F)c2)c2cccs2)ccc1F` (stereo not drawn), the survival is inactive: 81%. Regarding `Cc1ccc(S(=O)(=O)n2nc(-c3ccc(Cl)cc3)nc2NCc2ccc(F)cc2)cc1`, the survival was inactive: 75%. Take `CC(=O)N1CCCc2cc(S(=O)(=O)N3CCCC(C(=O)N4CCN(c5ccccc5)CC4)C3)ccc21` (stereo not drawn): the survival is inactive: 94%.

As to `Cc1cc(C)c2c(CC(=O)Nc3ccc(S(=O)(=O)Nc4nc(C)cc(C)n4)cc3)coc2c1`, the survival is inactive: 69%. Turning to `COc1ccc(CNC(=O)c2cc3cc(OC)ccc3oc2=O)cc1`, the survival was inactive: 51%. As to `CCC(=O)N1CCc2cc(Br)cc(S(=O)(=O)CCC(=O)N3CCN(c4cccc(C)c4)C(C)C3)c21` (stereo not drawn), the survival is inactive: 65%. Consider `CCc1ccc(S(=O)(=O)Nc2ccc3c(c2)n(C)c(=O)c(=O)n3C)cc1`, for which the survival was inactive: 79%.

Take `COc1ccc(C(=O)Nc2ccc3nc(SCC(=O)N4CCc5ccccc54)sc3c2)cc1`: the survival is inactive: 49%.

`COc1ccc(NC(=O)CCNS(=O)(=O)c2ccc3c(c2)CCCC(=O)N3)cc1Cl`: the survival was inactive: 118%. Take `O=C(Cc1cccs1)NC1CC(=O)N(c2ccc(F)cc2)C1` (stereo not drawn): the survival is inactive: 99%.

`Cc1oc(-c2ccc(C(=O)NCc3ccccc3)cc2)nc1CN1CCc2ccccc21`: the survival was inactive: 85%. With `CC(Sc1ccccn1)C(=O)Nc1ccccc1` (stereo not drawn), the survival is inactive: 97%. Take `COc1ccc(-c2csc3ncnc(Nc4cccc(OC)c4)c23)cc1`: the survival is inactive: 69%.

The values are drawn from PubChem BioAssay AID463173 (ICCB-Longwood Screening Facility, Harvard Medical School, 2010).
